The RNAGym collection of RNA variant scans (doi:10.7554/elife.90254)
The source gives no read counts; variants with many changes may rest on few reads.

B1: LINE1-mini (parent)
chain: GGCAGAGCUCAACACAGCGUGGCAAAGUGGCUGUGGCUAGACUGCC

Variants of: B1
Assay: self-cleavage, relative activity (ratio to wild type); higher = more cleavage; in vitro, sequencing; the parent is a self-cleaving ribozyme

| Variant | self-cleavage |
| --- | --- |
| GGCAGAGCUCAACACAGUGUGGCAGAGUGGGUGUGGCUAGACUGCC | 0.02 |
| GGGAGAGCUCAACGCAGCGUGGCAAAGCGGCUGAGCCUAAACUGAC | 0.14 |
| GGCAGAGUUCGACACAGCGUGGCAACGUGGUUGUGGCUAGACUGCC | 0.02 |
| GGCAGAACUCAACACAGCGUGGCAAAGUGACUGGGGCUAGACAGCC | 0.09 |
| GUCAGAGCUCAACACAGUGUGGCAAAGUGGCUCUGGCUAGACUGCC | 0.02 |
| GGCAGCGGUCAACACAGCGUGGCAAAGUCGCUGUGGCUAGACUGCC | 0.05 |
| GGCAGAGCUCAAAACAACGUGGCAAAGUGACCGUGGCUAGACUGGC | 0.01 |
| GGCAGAGCACAACAAAGGGUGGCAAAGUGGCUGUGGCUAGACUGCC | 0.1 |
| GGCAGAGGUCAACACAGCGUGGCAAAGUGGCUUUGGCUAGACUGCA | 0.07 |
| GGCAGAGCUCAACACAUGGUAGCAAAGGGGCUGUGGCUAGACUGCU | 0.06 |
| GGCAAAGCUCAACACAGCGUGGCAAAGUGGCAUUGACUAGAUUGCC | 0.05 |
| GGCAGUGCUUAACACAGCGUGGCAAAGCGGCUGUGGCUCGACUGCC | 0.14 |
| GGGAGAGCUCAACACAGGGAGGCAAACUGGCUGUGGCUAGACUGCC | 0.1 |
| GGCACAGCUCAACACAGCGUGGCAAAUUGGAUGUGUCUAGACUGCC | 0.01 |
| GGAAGAGCUUUACACAGCGUGGCAAAGUGUCUGUAGCUAGACUGCC | 0.05 |
| GGCAGAGCGCAACACAACGUGGCUAAGUGGCUCUGGCUAGACUUCC | 0.06 |
| GGCAGCGCUCAACACAGCGUGGCUAAGUGGCUGUGGCUAGACUGUC | 2.34 |
| GGAAGAGCUCGACACAGCGUGGCAAAGGGGCUGUGGCUAGACUGCC | 0.03 |
| GGCAGGGCUCAACACGGCGUGGCAAAGUGGCUGUGGCUAUACUGCC | 0.01 |

| Variant | self-cleavage |
| --- | --- |
| GGCAGAGCUCAACACAUCGGGUCAAAUUGCCUGUGGCUAGUGUGCC | 0.04 |
| GGCUGGGCUCAACACAGCGUGGCAAAGUGCCUGUGGCUAGACUGCC | 0.12 |
| GACAGAGCUCUACACAGCGUGGCAAAGUGGCUGAGGCUAAACUACC | 0.03 |
| GACAGAGAUCAAGACAGCGUGGCAAAGUGGCUGUCGCUAGACUGCC | 0.23 |
| GACAGAGCUGAACACAGCGUGGCAAAUUGGCUGUCGCUAGACUGGC | 0.01 |
| GGCAGAGCUCAACACAGCGCGGCAGAGUGGCUGUUGCUAGACUCCC | 0.05 |
| GGCAGGGCUCAACACAGCUUGGCAGAGUGGCAGUGGCUAGACUGCC | 0.09 |
| GGCAGACCUAAACACAGCGUGGCAAAGUGGCUGCGGAUAGACUGCC | 0.04 |
| GGCAGAGCUCAACACAGCGUGUCAGAGUGGCUGUCGCCACACUGCC | 0 |
| GGCAGAGCUCAUCACAGCGUGGCAGAGUCGCUGUGGCUAGACUGCC | 0.03 |
| GGAAGAGCUAAACACAGCUUGGCAAAGUGGCUGUGGCGAGACUGCC | 0.04 |
| GGCAGAGCUCAACUCGGCGUGGCAAAGUGGUUGUGGAUAGACUGCC | 0.01 |
| GGCACAGCUCAACACAGCGUGUCAAAGUGGCUCUGGCUAGACUGCC | 0.06 |
| GGUAGAGCUCAACAUAGCGUGGAAAAGUGACUGUGGCUUGACUGCC | 0.04 |
| GGCAGAGUUCUACACUGCGUGGCAAAGUGGCUGUGGCUAGACUGCC | 0 |
| GCCAGCGAUCAACACAGCGUGACAAAGUAGCUGUGGCUAGACUGCC | 0.03 |
| GCCAGAGCUCAACACACCGACGUAAAGUGGCUGUGGCUUGAAUGCC | 0.02 |
| GGUAGAGAUCAAGACAGCGUGGCAAAGUGGCUGCGGCUAGACUGCC | 0.41 |
| AGCAGAGCUCACGACAGCGUGGCAAAGUGGCUUUGGAUAGACAGCC | 0.01 |

| Variant | self-cleavage |
| --- | --- |
| GGCAGAUCUCAACACAGCGAGGAAAAGUGGCUGUGGCUAGACUGCC | 0.02 |
| GGCAGAGGUCAACACAGCGUGGUAAAGUUGCUCUGGCUCGACUGCA | 0.01 |
| GGCAGAGCUCUACACAGCGUGGCGAAGUGGCAGUGGCUAGACUGCC | 0 |
| GGCAGAACUCAACACAGCCUGGCAAAGUGGCUGUGGUUAGACUGGC | 0.01 |
| GGCAGAUCUCAACGCAGCGUGGUAAAGUCGCUGUUGUUAGACUGCC | 0 |
| GGCAGAGCUCAACACAGAGUGGCACAGUGGCUGUGCCUAGACUGCC | 0.02 |
| GGCAGAGUACAACACGGCGUGGCAAAGUGGCGGUGGCUAGACUGCC | 0.33 |
| GGUAGAGCUCAACACAGCGUGACAAAGUGGCUGUGGCUAGAUUGCC | 0.29 |
| UGCAGAGCUCAACCCAGCGUGGCAAAGUGAAUGUGGCUAGACUGCC | 0.04 |
| GGCAGAGCUAAACCCAGCGUGGCAAAGAGGCUGUGGCUAGACUGCA | 0.01 |
| GGCAUAGCUUAACACAGCGUGGCAAAGUGGCUGUGGCUAGACUGCU | 0.03 |
| GGCAGAGCUCAACACAGCGUGGCUAAGUGGCUGGGGCUAGUCUGCC | 0.1 |
| GGCAGAGCUCAACACAGCGUGGCAAAGUUGCUGCGGCUGGACUGCC | 0.02 |
| GGCAGACCUCAACACACCGGGGCAAAGUGGCUGUGGCUAGACUGCC | 0.02 |
| GGCAAAGCUCACCAGAGCGUGGUAAAUUGGCUGUGGCUAGACUGCC | 0.01 |
| GGCACAGCUCAACACAGCGUGGCAAAGUGCCUGUGGCUAGACUGCU | 0.02 |
| GGGAGAGCUCAACAGAGCGUGGAAAAGUGGCUGUGGCCAGACUGCC | 0.04 |
| GGCAGAGCUCAACACAGCCUGCAAAAUUGGCUGGGACUAGACUGCU | 0.14 |
